Laboratory results taken from PubChem BioAssay AID485281 (National Center for Advancing Translational Sciences (NCATS), 2010).
Where “and” joins values, the source holds several entries; their conditions need not be identical. Identical values can stand only once. Hit rate of the full screen: of about 350,000 compounds, about 260 (0.074%) were called active. Inconclusive results, whose numbers are uncertain, are shown with a selection of clear calls. Calls come from the whole dose curve; as a rule, active = well fitted inhibition curve with a large enough effect; inconclusive = small, poorly fitted or top-dose-only effect; inactive = no such curve, though single readings can be large or run the other way. Where the call is inconclusive, the potency comes from a doubtful curve fit.
% is set by controls: 0 for no effect and ±100 for the full control effect; potency is the fitted concentration of half-maximal effect; tags give direction and shape of the fitted curve.
Note: nearly all actives have a fitted effect of over 20% in size.

Each compound was assayed against Ferritin light chain (Equus caballus) (UniProt P02791) (assay: qHTS Assay for Identification of Novel General Anesthetics). Conditions: apoferritin/1-aminoanthracene competitive binding, fluorescence; activity change, negative = displacement: at 77.5 µM (top of the series).
Sequence of UniProt P02791 (P02791 whole entry, looked up): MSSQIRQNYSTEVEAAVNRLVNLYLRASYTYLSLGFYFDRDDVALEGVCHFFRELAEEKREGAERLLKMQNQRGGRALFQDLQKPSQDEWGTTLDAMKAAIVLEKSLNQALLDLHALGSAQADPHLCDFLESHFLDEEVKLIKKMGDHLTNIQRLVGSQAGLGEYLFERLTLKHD
Outline: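 Read-out: endpoint 1-AMA fluorescence, excitation 380 nm and emission 535 nm, after compounds sit 10 min at room temperature with 10 uM horse-spleen apoferritin in 50% saturated 1-AMA/PBS. Values come from four-parameter Hill fits.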
For `Cc1ccc(N2C(=O)CCSC23C(=O)N(Cc2ccccc2)c2ccccc23)cc1F` (configuration not stated), the “activity change, negative = displacement” value was inactive: -7.38%. `CCc1ccc2c(c1)C1(NN=C(c3ccc(C)cc3)S1)C(=O)N2` (configuration not stated) was tested, and the Potency was inconclusive: 50.1 µM [inhibitor, single point]. `CCn1c(=O)cc(SCC(=O)NCc2ccc3c(c2)OCO3)c2ccccc21` was tested, and the Potency was inconclusive: 25.1 µM [inhibitor, partial curve]. In the case of `O=C(Nc1ccc(Br)cc1F)N1CCC(CN2CCCC2)CC1`, the Potency was inconclusive: 7.94 µM [inhibitor, full curve, poor fit]. For `O=C1CCCc2c1[nH]c1ccc(CN3CCCCC3)cc21`, the “activity change, negative = displacement” value was inactive: -10.2%. With `COc1ccc(OC)c(C2OCCC=CC2C)c1` (configuration not stated) the activity change, negative = displacement was inactive: -2.31% [at 15.3 µM]. With `CCN1C(=O)c2ccccc2S(=O)c2ccc(C(=O)N3CCN(c4cccc(C)c4)C(C)C3)cc21` (configuration not stated) the Potency was inconclusive: 4.47 µM [inhibitor, full curve]. For `O=C(COc1cccc(NC(=O)c2ccco2)c1)c1ccccc1`, the Potency was inconclusive: 35.5 µM [inhibitor, partial curve]. In the case of `C/C(Cc1ccccc1)=N\NC(=O)CNC(=O)c1cccc(Cl)c1`, the Potency was inconclusive: 31.6 µM [inhibitor, single point]. With `Cn1cnnc1SCC(=O)Nc1ccc(OCc2ccccc2)cc1` the Potency was inconclusive: 5.62 µM [inhibitor, full curve]. In the case of `COc1ccc2c(C)cc(N3CCN(c4ccc(F)cc4)CC3)nc2c1`, the “activity change, negative = displacement” value was inactive: -9.94%. For `C=CCOc1ccccc1/C=N/NC(=O)c1ccc(Cl)cc1Cl`, the “activity change, negative = displacement” value was inactive: 6.81%. For `Nc1nc2ccc(O)cc2s1`, the “activity change, negative = displacement” value was inactive: 1.87%. In the case of `COc1ccc(CC(=O)Nc2cccc(-c3nnc(-c4cccc(C)c4)o3)c2)cc1OC`, the “activity change, negative = displacement” value was inactive: -2.07%. `CC(=O)c1c(O)c2ccccc2n(C)c1=O` was tested, and the “activity change, negative = displacement” value was inactive: -8.88%. With `O=C(O)c1ccccc1NC(=S)NC(=O)c1sc2ccccc2c1Cl` the Potency was inconclusive: 31.6 µM [inhibitor, single point]. In the case of `COc1cc(C(=O)Oc2ccccc2/C=N/NC(=O)c2ccc(Cl)cc2)cc(OC)c1OC`, the “activity change, negative = displacement” value was inactive: -9.72%. `O=C(O)CCC(=O)N(Cc1ccco1)C1CC(=O)N(c2ccccc2)C1=O` (configuration not stated) was tested, and the “activity change, negative = displacement” value was inactive: 4.39%. `Cc1cc(O)c(C(=O)/C=C/c2c(F)c(F)c(F)c(F)c2F)c(=O)o1` was tested, and the Potency was inconclusive: 10 µM [inhibitor, partial curve]. For `CCc1cc(C(=O)NNC(=S)Nc2cccc(C)c2)cs1`, the Potency was inconclusive: 50.1 µM [inhibitor, single point]. With `O=C(NN1C(=O)/C(=C/c2cccnc2)SC1=S)C(c1ccccc1)c1ccccc1` the Potency was inconclusive: 20 µM [inhibitor, partial curve]. With `COc1ccc(C2CC(=O)c3cnc(NC(=O)c4cccc(OC)c4)nc3C2)cc1` (configuration not stated) the Potency was inconclusive: 56.2 µM [inhibitor, single point]. `Cc1cccc(OCc2nnc(SCC(=O)N(C(C)C)C(C)C)n2Cc2ccco2)c1C` was tested, and the Potency was inconclusive: 44.7 µM [inhibitor, partial curve]. `CCCCC(CC)CNC(=O)Cn1c(=O)[nH]c2ccsc2c1=O` (configuration not stated) was tested, and the Potency was inconclusive: 22.4 µM [inhibitor, partial curve]. For `O=C(NCc1cccc(Cl)c1)c1ccc(NC(=O)N2CC3CCCN3c3ccccc32)cc1` (configuration not stated), the Potency was inconclusive: 25.1 µM [inhibitor, partial curve]. `C=CC(C)(C)c1cc2cc3ccoc3cc2oc1=O` was tested, and the Potency was inconclusive: 20 µM [inhibitor, partial curve]. `CCN1CCN(C2=C(NS(=O)(=O)c3ccc(C)cc3)C(=O)c3ccccc3C2=O)CC1` was tested, and the “activity change, negative = displacement” value was inactive: -19.1%. With `Cc1ccc(NC(=O)CN2C(=O)NC(Cc3ccccc3)C2=O)cc1` (configuration not stated) the Potency was inconclusive: 17.8 µM [inhibitor, partial curve]. `Cc1onc(-c2ccccc2Cl)c1C(=O)Oc1cccc2cccnc12` was tested, and the Potency was inconclusive: 17.8 µM [inhibitor, partial curve]. With `CC(=O)N[C@H](CS)C(=O)O` the “activity change, negative = displacement” value was inactive: 28.9%. In the case of `Cc1ccc(NC(=O)N2CCCCCC2)cc1`, the Potency was inconclusive: 50.1 µM [inhibitor, single point]. For `CCn1c(CSc2ncccn2)nnc1SCC(=O)N1CCc2ccccc21`, the Potency was inconclusive: 28.2 µM [inhibitor, partial curve]. In the case of `CCOC(=O)c1ccc(NC(=O)Cn2cc(C(=O)c3ccc(CC)cc3)c(=O)c3ccc(C)nc32)cc1`, the Potency was inconclusive: 1.41 µM [inhibitor, full curve, poor fit]. `Cc1ccc(S(=O)(=O)Nc2nc3ccccc3nc2NCc2ccco2)cc1C` was tested, and the “activity change, negative = displacement” value was inactive: -10.3%. With `COc1ccc(NS(=O)(=O)c2cccc(C(=O)NNC(=O)CNC(=O)c3cccc(C)c3)c2)cc1` the Potency was inconclusive: 31.6 µM [inhibitor, partial curve]. For `CCOC(=O)c1cnc2ccccc2c1NCCc1ccc(OC)c(OC)c1`, the Potency was inconclusive: 11.2 µM [inhibitor, partial curve] and inconclusive: 14.1 µM [inhibitor, partial curve]. With `CC(=O)c1c(C)oc2ccc(N(C(C)=O)S(=O)(=O)c3ccc(Cl)c([N+](=O)[O-])c3)cc12` the “activity change, negative = displacement” value was inactive: -17.3%. `CCSc1ncc(/C=N/Nc2ccc(F)cc2)n1C` was tested, and the Potency was inconclusive: 39.8 µM [inhibitor, partial curve]. In the case of `Cc1cc(NS(=O)(=O)N(C)C)ccc1C(C)C`, the Potency was inconclusive: 14.1 µM [inhibitor, partial curve]. `Oc1cccc2ccc(/C=C/c3cccs3)nc12` was tested, and the Potency was inconclusive: 44.7 µM [inhibitor, partial curve]. For `Cc1cccc(S(=O)(=O)N2CCCc3ccccc32)c1`, the “activity change, negative = displacement” value was inactive: -10.1%. For `CN(Cc1ccccc1)S(=O)(=O)c1ccc(-c2cnc(C3CC3)o2)cc1`, the “activity change, negative = displacement” value was inactive: 12.1%. With `Cc1cnn(C(=S)NCC2CCCO2)c1` (configuration not stated) the Potency was inconclusive: 56.2 µM [inhibitor, single point]. In the case of `O=C(C1=C[C@@H](C2CCCCC2)C[C@@H](OCc2ccc(CO)cc2)O1)N1CCN(Cc2ccc3c(c2)OCO3)CC1`, the “activity change, negative = displacement” value was inactive: 63.7%. For `CCOc1ccc2nc(Cl)c(CN(C(C)=O)C3CCCCC3)cc2c1`, the Potency was inconclusive: 31.6 µM [inhibitor, partial curve]. With `Cc1ccc(Nc2cc(C(=O)NCCCN3CCOCC3)c3ccccc3n2)c(C)c1` the “activity change, negative = displacement” value was inactive: -2.29%. For `CCCn1c(C)cc(C(=O)Cn2nnc3ccccc3c2=O)c1C`, the Potency was inconclusive: 31.6 µM [inhibitor, partial curve]. With `CC(NC(=O)Cn1c(=O)[nH]c2ccsc2c1=O)C12CC3CC(CC(C3)C1)C2` (configuration not stated) the Potency was active: 14.1 µM. In the case of `O=C(Nc1ccc2nc(SCC(=O)N3CCc4ccccc43)sc2c1)c1ccc(F)cc1`, the “activity change, negative = displacement” value was inactive: -3.03%. For `CCCc1nc(SC)ncc1C(=O)N1CCN(c2ccc(Cl)cc2)CC1`, the Potency was inconclusive: 50.1 µM [inhibitor, single point]. `O=S1(=O)CCC(NS(=O)(=O)/C=C/c2ccccc2)C1` (configuration not stated) was tested, and the “activity change, negative = displacement” value was inactive: 0.511%. In the case of `CC/C(=N\NC(=O)Cc1ccc(Br)cc1)c1cccs1`, the Potency was inconclusive: 7.94 µM [inhibitor, full curve, poor fit]. In the case of `CCCn1c(SCc2nc(-c3ccc(OC)c(OC)c3)no2)nnc1-c1ccccc1`, the “activity change, negative = displacement” value was inactive: -17.2%. `O=C(CCC(=O)c1cccs1)c1cccs1` was tested, and the Potency was inconclusive: 35.5 µM [inhibitor, single point]. `Cc1nc([N+](=O)[O-])nn1C12CC3CC(CC(Br)(C3)C1)C2` was tested, and the Potency was inconclusive: 3.98 µM [inhibitor, full curve]. `CC(C)=C1C2CC2C2C(C(=O)O)C12` (configuration not stated) was tested, and the Potency was inconclusive: 50.1 µM [inhibitor, single point]. With `COc1ccc(-c2noc(CCC(=O)N(C)c3cccc(C)c3)n2)cc1` the Potency was inconclusive: 12.6 µM [inhibitor, partial curve]. `NS(=O)(=O)c1ccc(CCNC(=O)Cn2c(-c3cccs3)cc3ccccc32)cc1` was tested, and the Potency was inconclusive: 39.8 µM [inhibitor, partial curve]. `Cc1ccc(NC(=O)[C@@H]2CCCN2S(=O)(=O)c2ccccc2F)cc1` was tested, and the “activity change, negative = displacement” value was inactive: -4.63%. `CC1CCC(NC(=O)CCS(=O)(=O)c2ccc3c(c2)NC(=O)CS3)CC1` (configuration not stated) was tested, and the “activity change, negative = displacement” value was inactive: -11.4%. `COc1cccc(NC(=O)CNC(=O)Cn2cnc3sc(C)c(C)c3c2=O)c1` was tested, and the Potency was inconclusive: 31.6 µM [inhibitor, single point]. `CCC(=O)N(Cc1ccc(C)cc1)Cc1cc2cc3c(cc2[nH]c1=O)OCO3` was tested, and the “activity change, negative = displacement” value was inactive: -4.13%. `CCCOC(=O)c1ccc(NC(=O)CCOc2ccccc2)cc1` was tested, and the Potency was inconclusive: 28.2 µM [inhibitor, partial curve]. For `Cc1ccc(C(=O)/C=C/c2c[nH]c3ccccc23)cc1`, the “activity change, negative = displacement” value was inactive: -14.2%. `COc1ccccc1/C=C1\SC(=S)N(CC(=O)NC2CCS(=O)(=O)C2)C1=O` (configuration not stated) was tested, and the Potency was inconclusive: 35.5 µM [inhibitor, partial curve]. In the case of `Cc1ccc2c(c1)N(C(=O)CCC(=O)NCc1cccc(Cl)c1)CC(C)O2` (configuration not stated), the Potency was inconclusive: 8.91 µM [inhibitor, full curve, poor fit]. For `C=CC(c1ccccc1)C(C(=O)c1ccccc1)N(C)C` (configuration not stated), the Potency was inconclusive: 28.2 µM [inhibitor, partial curve]. For `O=C(c1ccc(C23CC4CC(CC(C4)C2)C3)o1)N1CCOCC1`, the “activity change, negative = displacement” value was inactive: -21.8%. In the case of `CCOc1cc(/C=C2/NC(=O)N(CC(=O)Nc3cccc(C)c3)C2=O)ccc1OCC(N)=O`, the Potency was inconclusive: 15.8 µM [inhibitor, partial curve]. `CCC1CCCCN1S(=O)(=O)c1ccc(S(=O)(=O)N2CCN(S(=O)(=O)CC)CC2)cc1` (configuration not stated) was tested, and the Potency was inconclusive: 5.01 µM [inhibitor, partial curve]. In the case of `Cc1ccc(CNc2ncnc3c2cnn3-c2ccc(Cl)cc2)cc1`, the “activity change, negative = displacement” value was inactive: 4.38%. In the case of `OCc1cc(C(O)CNCCCCCCOCCCCc2ccccc2)ccc1O` (configuration not stated), the Potency was inconclusive: 28.2 µM [inhibitor, partial curve].
